Data published in the supplement of paper PMC7125110.
± gives the standard error. Variants at the floor of the assay are shown more often than the library holds them.

B1: glmS ribozyme (parent)
chain: AUAAAAGCGCCAGAACUACAGAAAUGUAGUUGACGAGGAGGAGGUUUAUCGAAUUUUCGGCGGAUGCCUCCAAA

Legend:
Conditions in all cases: with glucosamine-6-phosphate
[1] = variants of: B1; experiment: self-cleavage kobs at 40 uM GlcN6P; higher = faster cleavage; RNA array
Method in brief: (§1)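 kobs was derived by fitting per-tile medians to one- or two-exponential decays after normalising signals to baseline and to non-cleaving reference variants. Those signals came from barcoded ribozyme variants transcribed in situ by E. coli RNA polymerase on sequenced MiSeq chips, followed through a hybridised Cy3 probe at 37 °C and imaged over ~14 h. Glucosamine-6-phosphate (40 μM to 10 mM) in HEPES/KCl/Mg(OAc)2 buffer was flowed in. Weighted Michaelis–Menten fits across concentrations then gave kcat and KM.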

[2] = variants of: B1; experiment: self-cleavage kobs at 10000 uM GlcN6P; higher = faster cleavage; RNA array
Method in brief: as §1

[3] = variants of: B1; experiment: self-cleavage kobs at 640 uM GlcN6P; higher = faster cleavage; RNA array
Method in brief: as §1

[4] = variants of: B1; experiment: self-cleavage kobs at 160 uM GlcN6P; higher = faster cleavage; RNA array
Method in brief: as §1

[5] = variants of: B1; experiment: self-cleavage kobs at 2500 uM GlcN6P; higher = faster cleavage; RNA array
Method in brief: as §1

Variant	self-cleavage kobs at 40 uM GlcN6P [1] [s⁻¹]	self-cleavage kobs at 10000 uM GlcN6P [2] [s⁻¹]	self-cleavage kobs at 640 uM GlcN6P [3] [s⁻¹]	self-cleavage kobs at 160 uM GlcN6P [4] [s⁻¹]	self-cleavage kobs at 2500 uM GlcN6P [5] [s⁻¹]
AUAAAAGCCCCAGAACUACAGAAAUGUAGUUGACGAGGAGGAGGUUUAGCGAAUUUUCGGCGGAUGCCUCCAAA [G9C U49G]	< 1e-05	< 1e-05			
AUAAAAGCCCCAGAACUACAGAAAUGUAGUUGACGAGGAGGAGGUUUAUCGAAUUUUCGGCGGAUGCCACCAAA [G9C U69A]	< 1e-05		< 1e-05		
AUAAAAGCUCCCGAACUACAGAAAUGUAGUUGACGAGGAGGAGGUUUAACGAAUUUUCGGCGGAUGCCUCCAAA [G9U A12C U49A]	< 1e-05				
AUAAAAGCUCCUGAACUACAGAAAUGUAGUUGACGAGGAGGAGGUUUAUCGAAUUUUCGGCGGAUGCCUCUAAA [G9U A12U C71U]	< 1e-05		< 1e-05	< 1e-05	< 1e-05
AUAAAAGCUCCUGAACUACAGAAAUGUAGGUGACGAGGAGGAGGUUUAUCGAAUAUUCGGCGGAUGCCUCCAAA [G9U A12U U30G U55A]	< 1e-05	< 1e-05			
AUAAAAGCUCCAGUACUACAGAAAUGUAGUUUACGAGGAGGAGGUUUAUCGAAUUUUCGGCGGAUGCCUCCAAA [G9U A14U G32U]	< 1e-05	< 1e-05			
AUAAAAGCUCCAGAACUACAGAAAUGUAGUUGUCGAGGAGGAGGGUUAUCGAAUUUUCGGCUGAUGCCUCCAAA [G9U A33U U45G G62U]	< 1e-05	< 1e-05			
AUAAAAGCUCCAGAACUACAGAAAUGUAGUUGACGAGGAGGCGGUUUAUCGAAUUCUCGGCGGAUGCCUCUAAA [G9U A42C U56C C71U]	< 1e-05				
AUAAAAGCUUCAGAACUACAGAAAUGUAGUUGACGAGGAGGAGGUUUAUCGAAUUUUCGGCGGAUGCCUCGAAA [G9U C10U C71G]	< 1e-05	< 1e-05			
AUAAAAGCUCAAGAACUACAGAAAUGUAGUUGACGAGGAGGAGGUUUACCGAAUUUUCGGCGGGGGCCUUCAAA [G9U C11A U49C A64G U65G C70U]	< 1e-05				
AUAAAAGCUCCAGAAGUACAGAAAUGUAGUUGACGAGGAGGAGGUUUAUCGAAUUUUCGGCGGAUGCCUCCAAA [G9U C16G]	< 1e-05				< 1e-05
AUAAAAGCUCCAGAACUACAGAAAUGUAGUUGAGGAGGAGGAGGUUUAUCGAAUUUUCGGCGGAUGCCUCCAAA [G9U C34G]	< 1e-05	< 1e-05			< 1e-05
AUAAAAGCUCCAGAACUACAGAAAUGUAGUUGACGAGGAGGAGGUUUAUCGAAUUUUCGGGGGAUGCCUCCAAA [G9U C61G]	< 1e-05		4.57e-05 ± 1.2e-05		9.21e-05 ± 1.7e-05
AUAAAAGCUCCAGAACUACAGAAAUGUAGUUGACGAGGAGGAGGUUUAUCGAAUUUUCGGCGGAUGCCUACAAA [G9U C70A]	< 1e-05	< 1e-05		< 1e-05	
AUAAAAGCUCCAAAACUACAGAAAUGUAGUUGACGAGGAGGAGGGUUAUCGAAUUUUCGGCGGAUGCCUCCAAA [G9U G13A U45G]	< 1e-05	< 1e-05			
AUAAAAGCUCCACAACUACAGAAAUGUAGUUGACGAGGAGGAGGUUUAUCGAAUUUUCGGCGGAUGCAUCCAAA [G9U G13C C68A]	< 1e-05	< 1e-05			
AUAAAAGCUCCAGAACUACAGAAAUGUAAUUGACGAGGAGAAGGUUGAUCGAAUUGUCGGCGGAUGCGUCCAAA [G9U G29A G41A U47G U56G C68G]	< 1e-05	< 1e-05			
AUAAAAGCUCCAGAACUACAGAAAUGUAUUUGACGAGGAGGAGGUUUAUCGAAUUUUCGGCGGAUGCCUCCAAA [G9U G29U]	< 1e-05		< 1e-05	< 1e-05	< 1e-05
